According to the supplement of paper PMC4967469:
A lower IC50 marks a more sensitive line; a fit beyond the top or the lowest dose is shown as a bound at that dose. AUC sums up the same curve from the lowest dose to the 256-fold higher top dose; values near 1 show little effect.

Each cell line was assayed with CC[C@H](Nc1ncnc2[nH]cnc12)c1nc2cccc(F)c2c(=O)n1-c1ccccc1 [CAL-101] (assay: Viability of human cancer cell lines after 72 h of drug (GDSC screen)).
Experimental: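 Human cancer cell lines in 384-well plates, medium with 10% serum, drug for 72 h over a 256-fold dose range (nine 2-fold or five 4-fold steps up to the top dose). Adherent lines were fixed and stained with the nucleic acid dye Syto60, suspension lines read with resazurin; signal relative to control wells, capped at 0 and 100%. One two-parameter sigmoid per drug and line, fitted in a mixed model over all curves with the slope shared within a line.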
“MIA-PaCa-2 (pancreas, adherent, top dose 20 µM)” was tested, and the AUC was 0.975 and the IC50 was over 20 µM. Cell Line “MKN1 (stomach, adherent, top dose 20 µM)” has an AUC of 0.967 and an IC50 of over 20 µM. Work on “MKN28 (stomach, adherent, top dose 20 µM)” yielded an AUC of 0.982 and an IC50 of over 20 µM. In the case of “MKN45 (stomach, adherent, top dose 20 µM)”, the AUC is reported as 0.934 and the IC50 is reported as over 20 µM. “ML-1 (thyroid, adherent, top dose 20 µM)” showed an AUC of 0.979 and an IC50 of over 20 µM. For “ML-2 (acute myeloid leukaemia, suspension, top dose 20 µM)”, the AUC was 0.737 and the IC50 was 5.41 µM. Work on “MLMA (hairy cell leukaemia, semi-adherent, top dose 20 µM)” yielded an AUC of 0.671 and an IC50 of 3.75 µM. “MMAC-SF (melanoma, adherent, top dose 20 µM)” showed an AUC of 0.97 and an IC50 of over 20 µM. “MN-60 (B-cell leukaemia, suspension, top dose 20 µM)” was tested, and the AUC was 0.915 and the IC50 was over 20 µM. In the case of “MOG-G-CCM (glioma, adherent, top dose 20 µM)”, the AUC is reported as 0.921 and the IC50 is reported as over 20 µM. “MOG-G-UVW (glioma, adherent, top dose 20 µM)” gave an AUC of 0.926 and an IC50 of over 20 µM. Cell Line “MOLM-13 (acute myeloid leukaemia, suspension, top dose 20 µM)” has an AUC of 0.636 and an IC50 of 2.9 µM. In the case of “MOLP-8 (myeloma, suspension, top dose 20 µM)”, the AUC is reported as 0.731 and the IC50 is reported as 5.53 µM. Cell Line “MOLT-13 (T-cell lymphoblastic leukaemia, suspension, top dose 20 µM)” has an AUC of 0.968 and an IC50 of over 20 µM. For “MONO-MAC-6 (acute myeloid leukaemia, suspension, top dose 20 µM)”, the AUC was 0.778 and the IC50 was 8.56 µM. For “MPP-89 (mesothelioma, adherent, top dose 20 µM)”, the AUC was 0.98 and the IC50 was over 20 µM. In the case of “MRK-nu-1 (breast, suspension, top dose 20 µM)”, the AUC is reported as 0.99 and the IC50 is reported as over 20 µM. For “MS751 (cervix, adherent, top dose 20 µM)”, the AUC was 0.983 and the IC50 was over 20 µM. “MS-1 (small cell lung carcinoma, suspension, top dose 20 µM)” was tested, and the AUC was 0.963 and the IC50 was over 20 µM. With “MSTO-211H (mesothelioma, adherent, top dose 20 µM)” the AUC was 0.989 and the IC50 was over 20 µM. In the case of “MY-M12 (leukaemia, suspension, top dose 20 µM)”, the AUC is reported as 0.923 and the IC50 is reported as over 20 µM. For “MZ1-PC (pancreas, adherent, top dose 20 µM)”, the AUC was 0.926 and the IC50 was over 20 µM. With “MZ2-MEL (melanoma, adherent, top dose 20 µM)” the AUC was 0.935 and the IC50 was over 20 µM. Cell Line “MZ7-mel (melanoma, adherent, top dose 20 µM)” has an AUC of 0.969 and an IC50 of over 20 µM. For “Mewo (melanoma, adherent, top dose 20 µM)”, the AUC was 0.982 and the IC50 was over 20 µM. For “Mo-T (hairy cell leukaemia, suspension, top dose 20 µM)”, the AUC was 0.782 and the IC50 was 8.53 µM. With “NALM-6 (B-cell leukaemia, suspension, top dose 20 µM)” the AUC was 0.612 and the IC50 was 2.41 µM. Work on “NAMALWA (Burkitt lymphoma, suspension, top dose 20 µM)” yielded an AUC of 0.894 and an IC50 of 17.4 µM. In the case of “NB5 (neuroblastoma, adherent, top dose 20 µM)”, the AUC is reported as 0.909 and the IC50 is reported as over 20 µM. “NB6 (neuroblastoma, adherent, top dose 20 µM)” showed an AUC of 0.929 and an IC50 of over 20 µM. “NB7 (neuroblastoma, adherent, top dose 20 µM)” showed an AUC of 0.974 and an IC50 of over 20 µM. “NB10 (neuroblastoma, adherent, top dose 20 µM)” was tested, and the AUC was 0.985 and the IC50 was over 20 µM. In the case of “NB12 (neuroblastoma, adherent, top dose 20 µM)”, the AUC is reported as 0.955 and the IC50 is reported as over 20 µM. For “NB13 (neuroblastoma, adherent, top dose 20 µM)”, the AUC was 0.986 and the IC50 was over 20 µM. “NB14 (neuroblastoma, adherent, top dose 20 µM)” showed an AUC of 0.989 and an IC50 of over 20 µM. Work on “NB17 (neuroblastoma, adherent, top dose 20 µM)” yielded an AUC of 0.964 and an IC50 of over 20 µM. “NB69 (neuroblastoma, adherent, top dose 20 µM)” was tested, and the AUC was 0.914 and the IC50 was over 20 µM. For “NB(TU)1-10 (neuroblastoma, adherent, top dose 20 µM)”, the AUC was 0.992 and the IC50 was over 20 µM. In the case of “NB-4 (acute myeloid leukaemia, suspension, top dose 20 µM)”, the AUC is reported as 0.835. “NCC021 (kidney, adherent, top dose 20 µM)” showed an AUC of 0.852 and an IC50 of 19.7 µM. Work on “NCI-H23 (lung adenocarcinoma, adherent, top dose 20 µM)” yielded an AUC of 0.988 and an IC50 of over 20 µM. “NCI-H28 (mesothelioma, adherent, top dose 20 µM)” showed an AUC of 0.978 and an IC50 of over 20 µM. For “NCI-H64 (small cell lung carcinoma, suspension, top dose 20 µM)”, the AUC was 0.897 and the IC50 was 13.5 µM. Work on “NCI-H69 (small cell lung carcinoma, suspension, top dose 20 µM)” yielded an AUC of 0.938 and an IC50 of over 20 µM. “NCI-H82 (small cell lung carcinoma, suspension, top dose 20 µM)” was tested, and the AUC was 0.975 and the IC50 was over 20 µM. For “NCI-H187 (small cell lung carcinoma, suspension, top dose 20 µM)”, the AUC was 0.948 and the IC50 was over 20 µM. “NCI-H196 (small cell lung carcinoma, adherent, top dose 20 µM)” was tested, and the AUC was 0.879 and the IC50 was over 20 µM. For “NCI-H209 (small cell lung carcinoma, suspension, top dose 20 µM)”, the AUC was 0.976 and the IC50 was over 20 µM. “NCI-H211 (small cell lung carcinoma, adherent, top dose 20 µM)” gave an AUC of 0.959 and an IC50 of over 20 µM. “NCI-H226 (lung squamous cell carcinoma, adherent, top dose 20 µM)” showed an AUC of 0.967 and an IC50 of over 20 µM. “NCI-H292 (lung adenocarcinoma, adherent, top dose 20 µM)” showed an AUC of 0.911 and an IC50 of over 20 µM. “NCI-H322M (lung adenocarcinoma, suspension, top dose 20 µM)” gave an AUC of 0.966 and an IC50 of over 20 µM. For “NCI-H345 (small cell lung carcinoma, suspension, top dose 20 µM)”, the AUC was 0.989 and the IC50 was over 20 µM. For “NCI-H358 (lung adenocarcinoma, adherent, top dose 20 µM)”, the AUC was 0.944 and the IC50 was over 20 µM. “NCI-H441 (lung adenocarcinoma, adherent, top dose 20 µM)” showed an AUC of 0.979 and an IC50 of over 20 µM. “NCI-H446 (small cell lung carcinoma, semi-adherent, top dose 20 µM)” was tested, and the AUC was 0.913 and the IC50 was over 20 µM. “NCI-H460 (large cell lung carcinoma, adherent, top dose 20 µM)” was tested, and the AUC was 0.989 and the IC50 was over 20 µM. Cell Line “NCI-H510A (small cell lung carcinoma, semi-adherent, top dose 20 µM)” has an AUC of 0.985 and an IC50 of over 20 µM. “NCI-H520 (lung squamous cell carcinoma, adherent, top dose 20 µM)” showed an AUC of 0.793 and an IC50 of 9.51 µM. With “NCI-H522 (lung adenocarcinoma, adherent, top dose 20 µM)” the AUC was 0.969 and the IC50 was over 20 µM. “NCI-H524 (small cell lung carcinoma, suspension, top dose 20 µM)” gave an AUC of 0.987 and an IC50 of over 20 µM. “NCI-H526 (small cell lung carcinoma, suspension, top dose 20 µM)” was tested, and the AUC was 0.962 and the IC50 was over 20 µM. “NCI-H596 (lung adenocarcinoma, adherent, top dose 20 µM)” gave an AUC of 0.968 and an IC50 of over 20 µM. “NCI-H630 (large intestine, adherent, top dose 20 µM)” gave an AUC of 0.967 and an IC50 of over 20 µM. For “NCI-H647 (non-small cell lung carcinoma, adherent, top dose 20 µM)”, the AUC was 0.869 and the IC50 was 19.9 µM. In the case of “NCI-H650 (lung adenocarcinoma, adherent, top dose 20 µM)”, the AUC is reported as 0.965 and the IC50 is reported as over 20 µM. “NCI-H661 (large cell lung carcinoma, adherent, top dose 20 µM)” gave an AUC of 0.952 and an IC50 of over 20 µM. With “NCI-H716 (large intestine, suspension, top dose 20 µM)” the AUC was 0.958 and the IC50 was over 20 µM. Work on “NCI-H720 (lung carcinoid, suspension, top dose 20 µM)” yielded an AUC of 0.963 and an IC50 of over 20 µM. “NCI-H727 (lung carcinoid, adherent, top dose 20 µM)” showed an AUC of 0.97 and an IC50 of over 20 µM. “NCI-H747 (large intestine, adherent, top dose 20 µM)” was tested, and the AUC was 0.808 and the IC50 was 13.2 µM. In the case of “NCI-H748 (small cell lung carcinoma, suspension, top dose 20 µM)”, the AUC is reported as 0.976 and the IC50 is reported as over 20 µM. Cell Line “NCI-H810 (large cell lung carcinoma, adherent, top dose 20 µM)” has an AUC of 0.973 and an IC50 of over 20 µM. In the case of “NCI-H838 (lung adenocarcinoma, adherent, top dose 20 µM)”, the AUC is reported as 0.984 and the IC50 is reported as over 20 µM. “NCI-H841 (small cell lung carcinoma, adherent, top dose 20 µM)” was tested, and the AUC was 0.978 and the IC50 was over 20 µM. “NCI-H847 (small cell lung carcinoma, adherent, top dose 20 µM)” was tested, and the AUC was 0.993 and the IC50 was over 20 µM. “NCI-H1048 (small cell lung carcinoma, adherent, top dose 20 µM)” showed an AUC of 0.952 and an IC50 of over 20 µM.
